The source holds more than one record for some entries. This list holds those alone. An entry can have further records. Values given together repeat one measurement across runs, samples, wells, individuals or studies. Marks such as (2×) give the number of equal values in this list. Dates in brackets are months of testing.
Tested on: 299254-011-R-J1-PDC complex spheroid viability
Test: Anticancer human tumor 299254-011-R-J1-PDC patient-derived melanoma cell line growth inhibition [POLQ]
Conditions: stronger effect = lower value
Experimental: Multicellular complex tumor spheroid response to Polymerase (POL) inhibitors (novobiocin, ART-558, RP6685) in combination with a variety of drugs and investigational agents in selected tumor cell lines
The POL inhibitors (novobiocin, ART-558, and RP6685) were evaluated both individually and in combination with standard of care and investigational anticancer small molecules within a complex spheroid model of solid tumors. . Complex spheroids include a stromal component modeled by human endothelial cells (HUVEC) and fibroblasts modeled by human mesenchymal stem cells (MSCs). The concentration ranges selected for each drug and investigational agent were based upon clinically achievable concentrations if the clinical Cmax of the agent was known.
Compounds. The drugs and investigational agents: novobiocin (NSC847541), ART-558 (NSC835418), RP-6685 (NSC848927), peposertib (NSC802822), ceralasertib (NSC780249), elimusertib (NSC800525), camonsertib (NSC841442), AZD-1390 (NSC803789), olaparib (NSC753686), talazoparib (NSC767125), rucaparib (NSC756644), sotorasib (NSC818433), MRTX-1133 (NSC836407), SN-38 (NSC673596), topotecan (NSC609699), epotoside (NSC141540), doxorubicin (NSC123127), gemcitabine (NSC613327), 5-fluorouracil (NSC19893), paclitaxel (NSC125973), vemurafenib (NSC761431), MSA-2 (NSC828583), SN-011 (NSC837082), adavosertib (NSC754352), prexasertib (NSC758257), carboplatin (NSC241240) and oxaliplatin (NSC266046), were obtained from the National Cancer Institute (NCI) Developmental Therapeutics Program Chemical Repository (21). The FDA-approved anticancer drug set is available from the Developmental Therapeutics Program at https://dtp.cancer.gov/organization/dscb/obtaining/. […] The stock solutions were prepared in dimethyl sulfoxide (DMSO, Sigma-Aldrich, St. Louis, MO, cat. D2650), except for the platinum compounds which were prepared in saline (Quality Biological, Gaithersburg, MD, cat. 114-055-101), at 800-fold the tested concentration and stored at -70 degrees C prior to their use. All drugs and investigational agents were tested over a range starting from a high concentration at or near the clinical Cmax and decreasing in half-log increments. If the clinical Cmax for an agent had not been determined, the highest concentration tested was 10 microM, except for SN-38, which was tested at a high concentration of 1 microM.
Cell Culture. All cells were maintained in an incubator at 37 degrees C and 5% CO2 with 95% humidity. The PDC lines were cultured according to standard operating procedures established by the NCI PDMR (https://pdmr.cancer.gov). Table 3 of the manuscript, lists the cell lines along with the number of the three cell types plated to form the mct-spheroids and media for tumor cell growth. After thawing, all PDC lines, except 997537-175-T-J1-PDC and 415267-285-R-J2-PDC, were cultured in Matrigel-coated flasks prepared with a working solution of 1X Ham's F-12 nutrient mix, without supplementation (Thermo Fisher Scientific, cat. 11765054), 100 U/mL penicillin-streptomycin (Thermo Fisher Scientific, cat. 15140122), and 2.5% Matrigel (Corning Inc., Corning, NY, cat. 354248) for the first three passages. The two PDC lines 997537-175-T-J1-PDC and 415267-285-R-J2-PDC were cultured on uncoated flasks. The 857933-349-R-J2-PDC line was cultured in 6C/Colon 1B media containing advanced DMEM/F-12 (Thermo Fisher Scientific, cat. 12634028), 10 mM HEPES (Thermo Fisher Scientific, cat. 15630080), 1X GlutaMAX supplement (Thermo Fisher Scientific, cat. 35050061), 0.1 mg/mL primocin (InvivoGen, San Diego, CA, cat. ant-pm-2), 10% defined fetal bovine serum, heat inactivated (HyClone Laboratories Inc., Logan, UT, cat. SH30070.03HI), 50% L-WRN conditioned media (ATCC, cat. CRL-3276), 1.25 mM N-Acetyl-L-cysteine (Sigma-Aldrich, cat. A9165), 10 mM nicotinamide (Sigma-Aldrich, cat. N0636), 1X B-27 supplement (Thermo Fisher Scientific, cat. 17504044), 1X N-2 supplement (Thermo Fisher Scientific, cat. […]
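Further: spheroids exposed to drugs for one week before measurement; percent viability relative to DMSO vehicle control taken as 100%.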

| SMILES | viability, T/C (compound alone 0.0316 µM) | viability, T/C (compound alone 0.1 µM) | viability, T/C (compound alone 0.316 µM) | viability, T/C (compound alone 1 µM) | viability, T/C (compound alone 10 µM) |
| --- | --- | --- | --- | --- | --- |
| COC1C(OC(N)=O)C(O)C(Oc2ccc3c(O)c(NC(=O)c4ccc(O)c(CC=C(C)C)c4)c(=O)oc3c2C)OC1(C)C (stereo unspecified) | 107 (3×), 99.5, 120, 90.8, 104 (2×), 96.4, 113, 100, 102, 111% | 92.4, 100 (2×), 119, 99.9, 106, 103 (2×), 105, 102 (2×), 111, 117% | 104 (2×), 100 (2×), 135, 101, 107, 116, 105, 95.7, 109, 97, 96.7% | 97.4, 104, 126, 93.7, 122, 106, 87.5, 98.5, 97.2, 97, 111, 105% | 109, 91.4, 135, 100, 99.9, 108, 103, 111, 97.1, 105 (3×), 96.6% |
| Cc1cccc(N(C)C(=O)C2C(O)CCN2c2nc(C)cc(C(F)(F)F)c2C#N)c1 (stereo unspecified) |  |  |  |  | 87.2, 99.9, 92.1, 100, 98.7, 94.1, 95.3, 97% [2023-11] and 96.1, 98.8, 99.8, 99.3, 113% [2023-12] |

— PubChem BioAssay AID1963849 (Molecular Pharmacology Branch, DTP, NCI, 2024)
